Among the data in publication PMC12136788 are binding signal values, retold here.

The list shows a part of the results.

T1: UNK ZnF1-3 (human, UniProt Q9C0B0 31-174)
T1 sequence: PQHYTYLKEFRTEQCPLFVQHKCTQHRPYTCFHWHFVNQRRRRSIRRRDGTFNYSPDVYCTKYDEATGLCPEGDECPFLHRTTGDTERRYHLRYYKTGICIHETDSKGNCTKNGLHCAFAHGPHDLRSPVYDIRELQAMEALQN

B1: chr17:4849111:4849112:-_ENSG00000108518_ENST00000225655|hu_hu|FALSE|FALSE (ssRNA)
RNA: GGGAGUUCUACAGUCCGACGAUCCUGGCCCCCAGCCCAUGUGGUUUUGGCAGCAAUAAGGGGUAUGGGGUAAUGGCCCAAAAAAUAAAAUGGUUUGUGUGUGUAUGGGGAGGAAAGGGGUGCAAAGCUGUGGGGAGCGGUGAACAACAGAGGAUUGAGCAUCA
B2: chr18:48422213:48422214:+_ENSG00000082212_ENST00000321341|hu_hu|motif|central (ssRNA)
RNA: GGGAGUUCUACAGUCCGACGAUCGCUUGCCUUUUUCUUUUAUGUGCAAAUGUCGACAUGCCAAAGUACAAGUGGUGGAAACGGCUCUUAACCGGGACAACAUCUUUUCUUUCACCAGAGGUCUCGCGCCGCGACAGGUGGUACCAACAGAGGAUUGAGCAUCA
B3: chr12:105536279:105536280:+_ENSG00000136051_ENST00000332180|hu_mus|motif|central (ssRNA)
RNA: GGGAGUUCUACAGUCCGACGAUCAGCACUGAACAUGUAAUGUAAUCUGGCUGCAUCGACAGCAUUUUCAUAUACAUCAUCGGAAUAAAUCGGGAAGACAGCGCGAUGCCAGUAUAAAAAACAGCAGUCACACUGUGCUUGGACCAACAGAGGAUUGAGCAUCA
B4: chr17:21094002:21094003:+_ENSMUSG00000007564_ENSMUST00000007708|mus_hu|FALSE|FALSE (ssRNA)
RNA: GGGAGUUCUACAGUCCGACGAUCCAUGUAGCGGACGCGCCAGGACUUGUCUUCAGCGGCCUGGCGCAGAGUGGGCAUCACCAGGGCCUCCAGAUCCUCCUGGGGCAGAAGCUGGGCGAUGUUCACGCACGCCUCCACCGCCAGCAACAGAGGAUUGAGCAUCA
B5: chr5:144009550:144009551:+_ENSMUSG00000029587_ENSMUST00000032591|mus_hu|motif|central (ssRNA)
RNA: GGGAGUUCUACAGUCCGACGAUCGUCAAAAUUUACAGAAAAUAAAUCUCUAUAUCAACAGCUUAAAAUAAAUGACUUACCGGAAGUCCACUUCUGAACUGCAUAACUCCUAUAAAGGUUUCAGUCUGUACCAAUUAGAAUGUCCAACAGAGGAUUGAGCAUCA
B6: chr17:48772226:48772227:-_ENSG00000154945_ENST00000285243|hu_hu|motif|central (ssRNA)
RNA: GGGAGUUCUACAGUCCGACGAUCUAAGAUCAAACAAUUUGUUUACAAAAGCAACAGAUUUCAGAAUUGUGUAAAAAUCCGGAUAAUUUCAAAAUAACCUUUAUUUUUGAUACAAAAAUAAAGAUGCUAACUCCUUUAGCUCAGCAACAGAGGAUUGAGCAUCA

The target in the test is T1, UNK ZnF1-3. Kind of test: nsRBNS (natural sequence RNA bind-n-seq); RBNS binding buffer (assumed for nsRBNS): 25 mM Tris pH 7.5, 150 mM KCl, 3 mM MgCl2, 0.01% Triton X-100, 500 ug/ml BSA, 20 U/ml SUPERase-In, 4 C; UNK is unkempt and MSI1 is Musashi-1; names of the RNAs are library labels; protein concentration not given here; high values mean tight binding.
As for B1, the binding signal was determined as 3.12 enrichment R.

In the case of B2, the binding signal was found to be 0.83 enrichment R. The molecule B3 had a binding signal of 1.38 enrichment R. B4 had a binding signal of 0.451 enrichment R. Under B5 stands 0.8 enrichment R. In turn, B6 had a binding signal of 1.24 enrichment R.
